Results reported in the supplement of paper PMC10126150.
Sequences with one replicate were seen in a single cluster, so their values are uncertain.

The sequences below were run on ATP (assay: switch fluorescence ratio, 500 uM ATP over buffer (Cy3 cluster intensity, sum of 5 cycles each) (fold (ratio)); higher = stronger signal-on switching upon ATP binding; sequences stand for … in TCGTCGGCAGCGTCAGATGTGTATAAGAGACAGTTTTTTTTTTTTTTTTTTTTTTTTT…TC). Settings: aptamer strand: ATP DNA aptamer (quencher-CACCTGGGGGAGTATTGCGGAGGAAGG + anchor), 100 nM annealed; ATP concentration: 500 uM; one replicate.
Summary of the method: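 Five buffer/ATP imaging cycles were run on Cy3-labelled switching-strand clusters on a modified Illumina MiSeq flow-cell, with NaOH stripping and re-annealing between cycles. In each cycle, clusters annealed to 100 nM quencher-labelled ATP aptamer were imaged in selection buffer, then after 15 min with 500 uM ATP at 22 °C. Per cluster, the fluorescence ratio is summed target-cycle over summed buffer-cycle Cy3 intensity, averaged per switch-domain sequence. Only clusters within 100-1000 RFU were kept.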
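Note: ATP exposure 15 min at 22 °C before imaging.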

Row | Sequence | switch fluorescence ratio
1 | GGTCCTGGTG | 1.49
2 | GGTCGAGAGC | 1.01
3 | GGTCGCCGG | 1.01
4 | GGTCGGACAT | 0.921
5 | GGTCGGTTCA | 1.02
6 | GGTCGTCACT | 1.03
7 | GGTCGTCGTC | 1.03
8 | GGTCTACATA | 0.998
9 | GGTCTCGGCA | 1.01
10 | GGTCTCTATT | 0.952
11 | GGTCTTAAAA | 1.02
12 | GGTCTTGAGT | 0.997
13 | GGTCTTGGCG | 0.999
14 | GGTCTTGT | 0.991
15 | GGTGAAGGG | 1.01
16 | GGTGACTCGC | 1.04
17 | GGTGAGCCCG | 0.956
18 | GGTGAGGGAA | 0.995
19 | GGTGCATTGC | 1.06
20 | GGTGCCGAGA | 0.96
21 | GGTGCCTTTC | 0.938
22 | GGTGCGGATC | 0.967
23 | GGTGCTATAT | 1.06
24 | GGTGGAGGTG | 1.09
25 | GGTGGCAGGT | 0.954

Row | Sequence | switch fluorescence ratio
26 | GGTGGCTTCG | 0.965
27 | GGTGGGAATT | 1.03
28 | GGTGGGTTAT | 0.989
29 | GGTGGTATG | 1.02
30 | GGTGGTGCCT | 1.01
31 | GGTGGTTGAG | 0.993
32 | GGTGGTTTG | 1.03
33 | GGTGTAACCG | 0.976
34 | GGTGTCCCTG | 1.04
35 | GGTGTGGTCG | 0.975
36 | GGTGTTAATG | 0.999
37 | GGTGTTAGTA | 1.04
38 | GGTGTTATAA | 1.01
39 | GGTTAACGGG | 1.05
40 | GGTTAACTCT | 0.984
41 | GGTTAATTA | 1.03
42 | GGTTACACAC | 1.32
43 | GGTTACCCAG | 0.973
44 | GGTTACCCTG | 0.988
45 | GGTTACGCAA | 4.48
46 | GGTTAGTGCT | 0.947
47 | GGTTATAAGA | 0.972
48 | GGTTATGGAC | 0.962
49 | GGTTATTCTA | 0.996
50 | GGTTATTTCC | 0.993

Row | Sequence | switch fluorescence ratio
51 | GGTTCAGTGC | 1.04
52 | GGTTCATTCC | 1.18
53 | GGTTCCATAT | 1.04
54 | GGTTCCATTG | 0.96
55 | GGTTCCCGTG | 1.07
56 | GGTTCCTTCT | 1.06
57 | GGTTCCTTTT | 1.02
58 | GGTTCGCATA | 1.06
59 | GGTTCGGCGA | 0.959
60 | GGTTCGTTCA | 1.01
61 | GGTTCGTTGC | 1.02
62 | GGTTCTAGCC | 0.966
63 | GGTTCTTGTA | 0.99
64 | GGTTGACCGT | 0.949
65 | GGTTGACGTT | 0.933
66 | GGTTGATCCT | 0.975
67 | GGTTGCGCAT | 1.04
68 | GGTTGGAACA | 1.03
69 | GGTTGTCGTT | 1.04
70 | GGTTTAAAA | 0.955
71 | GGTTTAAACA | 1.01
72 | GGTTTATTAG | 1.02
73 | GGTTTCGTGC | 1
74 | GGTTTCTA | 1.02
75 | GGTTTTACCC | 1.04

Row | Sequence | switch fluorescence ratio
76 | GGTTTTGAGT | 0.975
77 | GGTTTTTAGG | 0.999
78 | GTAAAACTCT | 1.03
79 | GTAAACATAT | 0.976
80 | GTAAAGTACG | 1.13
81 | GTAAATAGAC | 1.01
82 | GTAAATCTCT | 1.01
83 | GTAACCGTCC | 2.46
84 | GTAACCTGCG | 1.24
85 | GTAACGCGC | 1.02
86 | GTAACTATAC | 1.41
87 | GTAAGAAGCA | 0.999
88 | GTAAGAAGCG | 0.969
89 | GTAAGGCTCT | 0.957
90 | GTAAGGGTAT | 0.975
91 | GTAAGTCGAC | 1.06
92 | GTAAGTGTGA | 1.02
93 | GTAATAAATG | 1.02
94 | GTAATAAGA | 0.982
95 | GTAATACGGT | 1.35
96 | GTAATCGCCT | 1.28
97 | GTAATCTGAG | 1.04
98 | GTAATGTTTT | 0.978
99 | GTACACTCAC | 1.33
100 | GTACCAGCGC | 1.01
